Reference: paper PMC9911399, “Two distinct binding modes provide the RNA-binding protein RbFox with extraordinary sequence specificity”
Substitutions are numbered along the chain they refer to; changes in the protein carry UniProt numbers. Some of the results follow.

T1: RBFOX1 RRM RbFoxmut (Fox-RRM*) (Homo sapiens, UniProt Q9NWB1 109-208, R118D;E147R;N151S;E152T)
T1 sequence: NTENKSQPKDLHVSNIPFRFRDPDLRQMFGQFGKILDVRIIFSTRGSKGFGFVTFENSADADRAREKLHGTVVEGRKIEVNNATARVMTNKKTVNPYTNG

B1: GCCUAAG (DNA:RNA)
RNA: GGGAGACCGGAAUUCAGAUUGUCCGCCUAAGUUAAAUCCCGUCGUAGCCACCA
DNA 1: CAATCTGAATTCCGGTCTCCC
DNA 2: TGGTGGCTACGACGGGATT
B2: GGCAAUA (DNA:RNA)
RNA: B1 RNA with C26G, U28A, A30U, G31A
DNA 1: CAATCTGAATTCCGGTCTCCC
DNA 2: TGGTGGCTACGACGGGATT
B3: ACAGUGU (DNA:RNA)
RNA: B1 RNA with G25A, C27A, U28G, A29U, A30G, G31U
DNA 1: CAATCTGAATTCCGGTCTCCC
DNA 2: TGGTGGCTACGACGGGATT
B4: CUUGUGG (DNA:RNA)
RNA: B1 RNA with G25C, C26U, C27U, U28G, A29U, A30G
DNA 1: CAATCTGAATTCCGGTCTCCC
DNA 2: TGGTGGCTACGACGGGATT
B5: GCAAGUA (DNA:RNA)
RNA: B1 RNA with C27A, U28A, A29G, A30U, G31A
DNA 1: CAATCTGAATTCCGGTCTCCC
DNA 2: TGGTGGCTACGACGGGATT
B6: AAUACAG (DNA:RNA)
RNA: B1 RNA with G25A, C26A, C27U, U28A, A29C
DNA 1: CAATCTGAATTCCGGTCTCCC
DNA 2: TGGTGGCTACGACGGGATT
B7: CAGCUGC (DNA:RNA)
RNA: GGGAGACCGGAAUUCAGAUUGUCCCAGCUGCUUAAAUCCCGUCGUAGCCACCA
DNA 1: CAATCTGAATTCCGGTCTCCC
DNA 2: TGGTGGCTACGACGGGATT
B8: AGAGCCA (DNA:RNA)
RNA: GGGAGACCGGAAUUCAGAUUGUCCAGAGCCAUUAAAUCCCGUCGUAGCCACCA
DNA 1: CAATCTGAATTCCGGTCTCCC
DNA 2: TGGTGGCTACGACGGGATT
B9: UAAUUGC (DNA:RNA)
RNA: B7 RNA with C25U, G27A, C28U
DNA 1: CAATCTGAATTCCGGTCTCCC
DNA 2: TGGTGGCTACGACGGGATT
B10: GCUGAGC (DNA:RNA)
RNA: B1 RNA with C27U, U28G, A30G, G31C
DNA 1: CAATCTGAATTCCGGTCTCCC
DNA 2: TGGTGGCTACGACGGGATT
B11: GAACGGG (DNA:RNA)
RNA: B7 RNA with C25G, G27A, U29G, C31G
DNA 1: CAATCTGAATTCCGGTCTCCC
DNA 2: TGGTGGCTACGACGGGATT
B12: AUAGACC (DNA:RNA)
RNA: B8 RNA with G26U, C29A, A31C
DNA 1: CAATCTGAATTCCGGTCTCCC
DNA 2: TGGTGGCTACGACGGGATT
B13: GGGCGGA (DNA:RNA)
RNA: B7 RNA with C25G, A26G, U29G, C31A
DNA 1: CAATCTGAATTCCGGTCTCCC
DNA 2: TGGTGGCTACGACGGGATT
B14: UCAUUCC (DNA:RNA)
RNA: B8 RNA with A25U, G26C, G28U, C29U, A31C
DNA 1: CAATCTGAATTCCGGTCTCCC
DNA 2: TGGTGGCTACGACGGGATT
B15: AGACGCC (DNA:RNA)
RNA: B8 RNA with G28C, C29G, A31C
DNA 1: CAATCTGAATTCCGGTCTCCC
DNA 2: TGGTGGCTACGACGGGATT
B16: UCACAUA (DNA:RNA)
RNA: B8 RNA with A25U, G26C, G28C, C29A, C30U
DNA 1: CAATCTGAATTCCGGTCTCCC
DNA 2: TGGTGGCTACGACGGGATT
B17: CGCAUGC (DNA:RNA)
RNA: B7 RNA with A26G, G27C, C28A
DNA 1: CAATCTGAATTCCGGTCTCCC
DNA 2: TGGTGGCTACGACGGGATT
B18: GUAAUAU (DNA:RNA)
RNA: B1 RNA with C26U, C27A, U28A, A29U, G31U
DNA 1: CAATCTGAATTCCGGTCTCCC
DNA 2: TGGTGGCTACGACGGGATT
B19: CAGGAAU (DNA:RNA)
RNA: B7 RNA with C28G, U29A, G30A, C31U
DNA 1: CAATCTGAATTCCGGTCTCCC
DNA 2: TGGTGGCTACGACGGGATT
B20: UUACCCG (DNA:RNA)
RNA: B8 RNA with A25U, G26U, G28C, A31G
DNA 1: CAATCTGAATTCCGGTCTCCC
DNA 2: TGGTGGCTACGACGGGATT
B21: UUACGUG (DNA:RNA)
RNA: B8 RNA with A25U, G26U, G28C, C29G, C30U, A31G
DNA 1: CAATCTGAATTCCGGTCTCCC
DNA 2: TGGTGGCTACGACGGGATT
B22: CAACUCC (DNA:RNA)
RNA: B7 RNA with G27A, G30C
DNA 1: CAATCTGAATTCCGGTCTCCC
DNA 2: TGGTGGCTACGACGGGATT
B23: CGAUAGU (DNA:RNA)
RNA: B8 RNA with A25C, G28U, C29A, C30G, A31U
DNA 1: CAATCTGAATTCCGGTCTCCC
DNA 2: TGGTGGCTACGACGGGATT
B24: UAACAAC (DNA:RNA)
RNA: B7 RNA with C25U, G27A, U29A, G30A
DNA 1: CAATCTGAATTCCGGTCTCCC
DNA 2: TGGTGGCTACGACGGGATT
B25: UACUGAC (DNA:RNA)
RNA: B1 RNA with G25U, C26A, A29G, G31C
DNA 1: CAATCTGAATTCCGGTCTCCC
DNA 2: TGGTGGCTACGACGGGATT
B26: GUCUGCC (DNA:RNA)
RNA: B1 RNA with C26U, A29G, A30C, G31C
DNA 1: CAATCTGAATTCCGGTCTCCC
DNA 2: TGGTGGCTACGACGGGATT
B27: CACAAGA (DNA:RNA)
RNA: B7 RNA with G27C, C28A, U29A, C31A
DNA 1: CAATCTGAATTCCGGTCTCCC
DNA 2: TGGTGGCTACGACGGGATT
B28: GUGGCUA (DNA:RNA)
RNA: B8 RNA with A25G, G26U, A27G, C30U
DNA 1: CAATCTGAATTCCGGTCTCCC
DNA 2: TGGTGGCTACGACGGGATT
B29: CAACCAG (DNA:RNA)
RNA: B7 RNA with G27A, U29C, G30A, C31G
DNA 1: CAATCTGAATTCCGGTCTCCC
DNA 2: TGGTGGCTACGACGGGATT
B30: UUGCUGU (DNA:RNA)
RNA: B7 RNA with C25U, A26U, C31U
DNA 1: CAATCTGAATTCCGGTCTCCC
DNA 2: TGGTGGCTACGACGGGATT
B31: UACUCAC (DNA:RNA)
RNA: B1 RNA with G25U, C26A, A29C, G31C
DNA 1: CAATCTGAATTCCGGTCTCCC
DNA 2: TGGTGGCTACGACGGGATT

Target: T1, RBFOX1 RRM RbFoxmut (Fox-RRM*)
Assay: EMSA; HiTS-Eq, 1 nM pool, 10 min; buffer printed only for the single-RNA assays: 10 mM Tris pH 7.5, 150 mM NaCl, 3.4 mM EDTA, 0.001% NP-40, 30 C
Details: tags: His6 N-terminal (pET28a); label: 5' 32P
Outline: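 Purified wild-type or mutant RbFox RRM at increasing concentrations was equilibrated with 1 nM of 5′-radiolabelled RNA carrying 7 randomized nucleotides for 10 min in 50 µL. Unbound RNA was separated by 8% native PAGE and sequenced. Relative association constants came from read-count changes of each RNA species compared with the control reaction, normalised to the cognate motif.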

Binder | binding signal
B1 | 0.0997 KA relative to UGCAUGU
B2 | 0.0922 KA relative to UGCAUGU
B3 | 0.16 KA relative to UGCAUGU
B4 | 0.0693 KA relative to UGCAUGU
B5 | 0.131 KA relative to UGCAUGU
B6 | 0.106 KA relative to UGCAUGU
B7 | 0.113 KA relative to UGCAUGU
B8 | 0.0915 KA relative to UGCAUGU
B9 | 0.0886 KA relative to UGCAUGU
B10 | 0.102 KA relative to UGCAUGU
B11 | 0.125 KA relative to UGCAUGU
B12 | 0.0619 KA relative to UGCAUGU
B13 | 0.0925 KA relative to UGCAUGU
B14 | 0.0698 KA relative to UGCAUGU
B15 | 0.06 KA relative to UGCAUGU
B16 | 0.112 KA relative to UGCAUGU

Binder | binding signal
B17 | 0.951 KA relative to UGCAUGU
B18 | 0.136 KA relative to UGCAUGU
B19 | 0.0834 KA relative to UGCAUGU
B20 | 0.0805 KA relative to UGCAUGU
B21 | 0.0946 KA relative to UGCAUGU
B22 | 0.0674 KA relative to UGCAUGU
B23 | 0.092 KA relative to UGCAUGU
B24 | 0.0642 KA relative to UGCAUGU
B25 | 0.0891 KA relative to UGCAUGU
B26 | 0.181 KA relative to UGCAUGU
B27 | 0.0712 KA relative to UGCAUGU
B28 | 0.143 KA relative to UGCAUGU
B29 | 0.094 KA relative to UGCAUGU
B30 | 0.158 KA relative to UGCAUGU
B31 | 0.0678 KA relative to UGCAUGU
